# “And” between values parts separate entries of the source, which are not always exact repeats. Equal entries are not always repeated. Screen size: about 420,000 compounds; about 64,000 (15%) were called active. Inconclusive means that the source gave no clear call. Such entries were picked first, then a sample of the others. The call rests on the fitted dose curve; in most records, active means well fitted inhibition curve with a large enough effect; inconclusive means small, poorly fitted or top-dose-only effect; inactive means flat fitted curve, though single readings scatter. A potency beside an inconclusive call is a rough fit, not a confirmed value.
# Assay: qHTS for Inhibitors of human tyrosyl-DNA phosphodiesterase 1 (TDP1): qHTS in cells in absence of CPT; further: nearly all actives have a fitted effect of over 55% in size
# Details: DT40 Tdp1-/- hTDP1 cells, no CPT, ATP luminescence, 48 h; activity change, negative = growth inhibition: at 46.2 µM (top of the series) unless noted
# Outline: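 Compound effects on proliferation are scored in DT40 Tdp1-/-;hTDP1 cells in the absence of CPT. ATP levels (CellTiter-Glo luminescence) are recorded after a ≥48 hr, 37 °C incubation.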
# On the % scale 0 is the no-effect control and ±100 the full control effect; potency means the concentration at half of the fitted maximal effect; tags describe the fitted curve by direction and shape.
Compound,Potency,"activity change, negative = growth inhibition"
CCCCOC(=O)c1ccc(NC2=NS(=O)(=O)c3ccccc32)cc1,"inconclusive: 0.0731 µM [inhibitor, full curve, poor fit]",–
O=C1CN(C(=O)COC(=O)c2ccc([N+](=O)[O-])s2)c2ccccc2N1,"inconclusive: 29.1 µM [inhibitor, single point]",–
c1ccc(CCc2cc3ccccc3[nH]2)cc1,"inconclusive: 14.6 µM [inhibitor, single point]",–
CN(C(=O)CN1C(=O)/C(=C/c2ccc(Cl)cc2)SC1=S)C1CCS(=O)(=O)C1 (configuration not stated),"inconclusive: 20.6 µM [inhibitor, single point]",–
CN1C(=O)C(CC(=O)Nc2ccc(Cl)cc2)N(Cc2ccco2)C1=S (configuration not stated),"inconclusive: 25.9 µM [inhibitor, single point]",–
Cc1ccc(C23CC4CC(CC(NC(=O)NCCN(C)C)(C4)C2)C3)cc1,active: 23.1 µM,–
O=C(N1CCOCC1)N1c2ccccc2CC(N2CCOCC2)c2ccccc21 (configuration not stated),"inconclusive: 16.4 µM [inhibitor, single point]",–
CCN1CCCC1CNC(=O)c1cc2ccc(OC)cc2[nH]1 (configuration not stated),–,inactive: 18.1%
CC(CCCC(C)(C)O)NCc1cn[nH]c1-c1ccc2c(c1)OCO2 (configuration not stated),"inconclusive: 29.1 µM [inhibitor, single point]",–
Cc1ccc(-c2nc3n(n2)C(=O)CC(c2ccc(C)cc2)S3)cc1 (configuration not stated),–,inactive: -2.64%
Cc1ccc(-n2[nH]c(C)c(C=Nc3cc(C)ccn3)c2=O)cc1,"inconclusive: 29.1 µM [inhibitor, single point]",–
CC(C)c1ccc(C(=O)Nc2cccnc2)cc1,–,inactive: -27.2%
CNc1ccc(/C=C/C(=O)c2cccc3ccccc23)cc1[N+](=O)[O-],active: 16.4 µM,–
O=C(c1ccc(CNS(=O)(=O)c2cccc(Cl)c2)cc1)N1CCCCC1,active: 14.6 µM,–
COc1ccccc1-c1coc2cc(O)cc(O)c2c1=O,"inconclusive: 8.2 µM [inhibitor, partial curve]",–
Cc1cc(C)cc(NS(=O)(=O)CCCS(=O)(=O)Nc2cc(C)cc(C)c2)c1,"inconclusive: 18.4 µM [inhibitor, partial curve]",–
COc1cccc(NC(=O)CCN2C(=O)c3ccc([N+](=O)[O-])cc3C2=O)c1,–,inactive: -7.78%
CCOC(=O)c1c2ccc(OCC(=O)N/N=C/c3ccc(C)cc3)cc2n2ccccc12,active: 18.4 µM,–
O=C(O)COc1ccc(/C=C/C(=O)c2ccc(C3CCCCC3)cc2)cc1,active: 18.4 µM,–
CCOC(=O)C1CCN(S(=O)(=O)c2ccc(CN3C(=O)c4cccnc4C3=O)cc2)CC1,–,inactive: 9.2%
COc1ccc(C(=O)NCCCCCC(=O)N/N=C/c2ccco2)cc1OC,"inconclusive: 29.1 µM [inhibitor, single point]",–
CSCCC(C(=O)NCc1ccccc1)n1c(C2CCN(C(C)=O)CC2)nc2ccccc21 (configuration not stated),–,inconclusive: -31.7% [inhibitor]
O=C(/C=C/Nc1ccc(Br)cn1)c1cccc(OC(F)F)c1,"inconclusive: 29.1 µM [inhibitor, single point]",–
COc1ccc(S(=O)(=O)NCc2ccc3c(c2)CCN3C(C)=O)cc1OC,"inconclusive: 25.9 µM [inhibitor, single point]",–

Compound,Potency,"activity change, negative = growth inhibition"
CN(C)CCN(C(=O)c1ccc(S(=O)(=O)N(C)C)cc1)c1nc2cc3c(cc2s1)OCCO3,–,inactive: -25.5%
CNCc1cn2cc(Cl)ccc2n1,"inconclusive: 29.1 µM [inhibitor, single point]",–
C[C@H]1CN([C@@H](C)CO)C(=O)CCCn2cc(nn2)CO[C@@H]1CN(C)S(=O)(=O)c1ccc(C#N)cc1,–,inactive: -29.7%
COC(=O)C1=CN(C)C=C(C(=O)OC)C1c1ccc(Cl)cc1Cl,"inconclusive: 29.1 µM [inhibitor, single point]",–
CCOc1ccc(CN2C(=O)c3ccccc3Sc3ccc(C(=O)NCCCN4CCOCC4)cc32)cc1,"inconclusive: 29.1 µM [inhibitor, single point] and inconclusive: 20.6 µM [inhibitor, single point]",–
C/C(=N\NC(=O)c1ccc([N+](=O)[O-])c(C)c1)c1ccccc1Cl,active: 20.6 µM,–
O=C(CCC(=O)N/N=C/c1ccc(Br)o1)N/N=C/c1ccc(Br)o1,–,inactive: 1.16%
Nc1ncnc2c1ncn2[C@@H]1O[C@H](COP(=O)(O)O)[C@@H](O)[C@H]1O,inactive,–
O=C(Cc1ccccc1)N1CCN(S(=O)(=O)c2ccc([N+](=O)[O-])cc2)CC1,–,inactive: -11.9%
Nc1nc(NCCCN2CCOCC2)nc(Nc2ccc(F)cc2)c1[N+](=O)[O-],"inconclusive: 29.1 µM [inhibitor, single point]",–
COc1ccc2cc(C#N)c(N3CCOCC3)nc2c1,"inconclusive: 25.9 µM [inhibitor, single point]",–
C=CCn1c(SCc2nnc(-c3ccccc3)o2)nnc1C(O)c1ccccc1 (configuration not stated),–,inactive: -2.15%
Cc1ccc(NC(=O)CCS(=O)(=O)c2ccc3nc(C)sc3c2)c(C)c1,–,inactive: -6.98%
COC/C=C/C1=CC2=CC(=O)C(C)(OC(=O)c3cnc4ccccc4n3)C(=O)C2=CN1CC1CC1 (configuration not stated),"inconclusive: 29.1 µM [inhibitor, single point]",–
O=C(NCc1ccccc1)C1CCCN(S(=O)(=O)c2cccc3nonc23)C1 (configuration not stated),"inconclusive: 29.1 µM [inhibitor, single point]",–
CCC(CO)Oc1cc(NC(=O)Cc2ccccc2)c2ncn(C(C)C)c2c1 (configuration not stated),"inconclusive: 23.1 µM [inhibitor, single point]",–
O=C(Nc1ccc(Cl)c(Cl)c1)N(Cc1c[nH]c2ccccc12)C1CCCCC1,active: 9.2 µM,–
COc1cc2c(cc1OC)CN(C(=O)c1cc(COc3ccccc3SC)on1)CC2,"inconclusive: 29.1 µM [inhibitor, partial curve, poor fit]",–
COc1cccc(/C=N/NC(=S)NCc2ccco2)c1OC,"inconclusive: 29.1 µM [inhibitor, single point]",–
CCCCC(=O)Nc1ccc(N2CCN(c3ccc(F)cc3)CC2)cc1,–,inactive: 1.26%
O=S(=O)(NCC1CCN(c2ccc(S(=O)(=O)N3CCOCC3)cc2)CC1)c1ccc(F)cc1,active: 20.6 µM,–
Cc1ccc(OCC(=O)N2CCC(Cc3ccccc3)CC2)c([N+](=O)[O-])n1,"inconclusive: 29.1 µM [inhibitor, single point]",–
CCN(CC)c1ccc(/C=N/NC(=O)c2cnccn2)c(O)c1,active: 4.11 µM,–
COc1cc2c(cc1OC)C(C)N(S(=O)(=O)c1ccc(C)cc1)CC2 (configuration not stated),"inconclusive: 10.3 µM [inhibitor, partial curve]",–

Compound,Potency,"activity change, negative = growth inhibition"
CC1CC(C)CN(C(=O)CNC(=O)c2ccc3ccccc3c2)C1 (configuration not stated),"inconclusive: 29.1 µM [inhibitor, single point]",–
CC(C)c1nc2oc3c(N4CCN(C)CC4)ncnc3c2c2c1CCC2,"inconclusive: 29.1 µM [inhibitor, single point]",–
COc1ccccc1C(=O)Nc1ccnn1C1CCN(CCCc2ccccc2)CC1,"inconclusive: 16.4 µM [inhibitor, single point]",–
CC(=O)N1CCn2c3c(c4cc(C)ccc42)CCCC31 (configuration not stated),–,inactive: -24.2%
O=C(NCc1ccccc1Cl)C(=O)NCC1OCCN1S(=O)(=O)c1ccc(F)cc1 (configuration not stated),–,inactive: -29.9%
COc1ccc(C2NS(=O)(=O)OCC2C)cc1 (configuration not stated),–,inactive: -8.25%
C=CCN(CC=C)C(=O)Nc1cc(Cl)ccc1OC,–,inactive: -21.7%
O=C(c1cc(C(F)(F)F)cc(C(F)(F)F)c1)N1CCC2(CC1)CN(c1ccncc1)C2,"inconclusive: 20.6 µM [inhibitor, single point]",–
CCOC(=O)c1ccc(N2CCN(c3ccc(F)cc3)CC2)c(NC(=O)Nc2ccc(CC)cc2)c1,–,inactive: -5.18%
CCOc1ccc(C(=O)Nc2ccc(NC(=O)c3ccccc3)cc2)cc1Br,inactive,–
CCCOc1ccc(C(=O)N2CCN(c3ccc(N)cc3Cl)CC2)cc1,active: 20.6 µM,–
O=C(CN1CCN(Cc2ccc(F)cc2)CC1)NCc1ccccc1,–,inconclusive: -3.42% [inhibitor]
Cc1ccc(OCC(=O)N(Cc2nc(-c3ccccc3)no2)C(C)C)cc1C,"inconclusive: 18.4 µM [inhibitor, single point]",–
O=C(Nc1ccc2c(c1)OCCO2)C(c1ccccc1F)n1c(=O)c(-c2ccco2)nc2ccccc21 (configuration not stated),"inconclusive: 7.31 µM [inhibitor, partial curve]",–
CC(C)Cn1c([N+](=O)[O-])nc2c1c(=O)[nH]c(=O)n2C,active: 4.61 µM,–
COC(=O)c1ccc([C@H]2Nc3ccc(S(=O)(=O)Nc4ccc(F)cc4)cc3[C@H]3C=CC[C@H]32)cc1,active: 3.26 µM,–
CCN(Cc1ccccc1)S(=O)(=O)c1ccc(C(=O)N(CCCN(C)C)c2nc3cc4c(cc3s2)OCO4)cc1,–,inactive: -27.2%
Cc1cc(OCC(=O)Nc2sc3c(c2C#N)CCC(C)C3)ccc1Cl (configuration not stated),"inconclusive: 29.1 µM [inhibitor, single point]",–
Cc1ccc(-c2csc(C(C#N)=C(O)CN3CCN(C(=O)c4ccco4)CC3)n2)cc1,–,inactive: -14%
Cc1cccc(-c2ncc(CN3CCC(CO)(CCCc4ccccc4)CC3)cn2)c1,active: 23.1 µM,–
Cc1ccc(/C=N/NC(=O)c2nnn(-c3nonc3N)c2-c2ccc3c(c2)OCO3)s1,–,inactive: -21.1%
Cc1ccc2[nH]c(=O)c3cc(C(=O)NCc4cccc(Cl)c4)sc3c2c1,"inconclusive: 29.1 µM [inhibitor, single point]",–
O=C(Nc1ccccc1)Nc1cccc2ccccc12,"inconclusive: 11.6 µM [inhibitor, partial curve]",–
N#Cc1c(C(F)(F)F)cc(-c2ccco2)nc1SCc1ccccn1,–,inactive: -23.6%
